T1: human CD79b (TAHO5) (human, UniProt P40259 29-229)
T1 sequence: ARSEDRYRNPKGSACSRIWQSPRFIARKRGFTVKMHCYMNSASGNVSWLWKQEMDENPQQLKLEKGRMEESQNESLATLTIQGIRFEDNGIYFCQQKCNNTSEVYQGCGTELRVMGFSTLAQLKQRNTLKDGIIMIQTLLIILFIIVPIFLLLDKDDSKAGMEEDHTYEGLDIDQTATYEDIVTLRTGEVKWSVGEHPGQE

B1: anti-human CD79b (SN8)-SMCC-DM1 (antibody)
VH: EVQLQQSGAELMKPGASVKISCKATGYTFSSYWIEWVKQRPGHGLEWIGEILPGGGDTNYNEIFKGKATFTADTSSNTAYMQLSSLTSEDSAVYYCTRRVPVYFDYWGQGTSVTVSS[human IgG1 constant region omitted here]
VL: DIVLTQSPASLAVSLGQRATISCKASQSVDYDGDSFLNWYQQKPGQPPKLFIYAASNLESGIPARFSGSGSGTDFTLNIHPVEEEDAATYYCQQSNEDPLTFGAGTELELKRTVAAPSVFIFPPSDEQLKSGTASVVCLLNNFYPREAKVQWKVDNALQSGNSQESVTEQDSKDSTYSLSSTLTLSKADYEKHKVYACEVTHQGLSSPVTKSFNRGEC
modifications: DM1 linked through SMCC to the epsilon-amino group of lysines; drug to antibody ratio typically 3 to 4
B2: anti-human CD79b (SN8)-MC-MMAF (antibody)
VH: EVQLQQSGAELMKPGASVKISCKATGYTFSSYWIEWVKQRPGHGLEWIGEILPGGGDTNYNEIFKGKATFTADTSSNTAYMQLSSLTSEDSAVYYCTRRVPVYFDYWGQGTSVTVSS[human IgG1 constant region omitted here]
VL: DIVLTQSPASLAVSLGQRATISCKASQSVDYDGDSFLNWYQQKPGQPPKLFIYAASNLESGIPARFSGSGSGTDFTLNIHPVEEEDAATYYCQQSNEDPLTFGAGTELELKRTVAAPSVFIFPPSDEQLKSGTASVVCLLNNFYPREAKVQWKVDNALQSGNSQESVTEQDSKDSTYSLSSTLTLSKADYEKHKVYACEVTHQGLSSPVTKSFNRGEC
modifications: MMAF linked through the cysteine by the maleimidocaproyl (MC) linker; sites and load not stated

Biological target: T1, human CD79b (TAHO5)
Test: cell-based or functional assay

| Binder | IC50 of tumor cell killing (CellTiter-Glo), non-transfected BJAB cells [nM] | IC50 of tumor cell killing (CellTiter-Glo), BJAB-cyno CD79b cells [nM] |
| --- | --- | --- |
| B1 | 0.4 |  |
| B2 | 0.2 | 0.6 |
